Data taken from publication PMC7763487 (2020).
No constants are given. Whether binding was seen depends on the method and setting. In cells and extracts the contact can be indirect. Some binding calls cover weakened binding; strength is not graded here. Sequences can lack the tags named with a protein.

Chains of the proteins cited; added tags and fusions are not shown. Lines headed by an entry give the natural chain unless they say otherwise; changes in a name come on top. A line that says so, or that is headed by a name, gives the form on record, which may keep a tag or linker. Residues count along the entry.
UniProt Q3URK3: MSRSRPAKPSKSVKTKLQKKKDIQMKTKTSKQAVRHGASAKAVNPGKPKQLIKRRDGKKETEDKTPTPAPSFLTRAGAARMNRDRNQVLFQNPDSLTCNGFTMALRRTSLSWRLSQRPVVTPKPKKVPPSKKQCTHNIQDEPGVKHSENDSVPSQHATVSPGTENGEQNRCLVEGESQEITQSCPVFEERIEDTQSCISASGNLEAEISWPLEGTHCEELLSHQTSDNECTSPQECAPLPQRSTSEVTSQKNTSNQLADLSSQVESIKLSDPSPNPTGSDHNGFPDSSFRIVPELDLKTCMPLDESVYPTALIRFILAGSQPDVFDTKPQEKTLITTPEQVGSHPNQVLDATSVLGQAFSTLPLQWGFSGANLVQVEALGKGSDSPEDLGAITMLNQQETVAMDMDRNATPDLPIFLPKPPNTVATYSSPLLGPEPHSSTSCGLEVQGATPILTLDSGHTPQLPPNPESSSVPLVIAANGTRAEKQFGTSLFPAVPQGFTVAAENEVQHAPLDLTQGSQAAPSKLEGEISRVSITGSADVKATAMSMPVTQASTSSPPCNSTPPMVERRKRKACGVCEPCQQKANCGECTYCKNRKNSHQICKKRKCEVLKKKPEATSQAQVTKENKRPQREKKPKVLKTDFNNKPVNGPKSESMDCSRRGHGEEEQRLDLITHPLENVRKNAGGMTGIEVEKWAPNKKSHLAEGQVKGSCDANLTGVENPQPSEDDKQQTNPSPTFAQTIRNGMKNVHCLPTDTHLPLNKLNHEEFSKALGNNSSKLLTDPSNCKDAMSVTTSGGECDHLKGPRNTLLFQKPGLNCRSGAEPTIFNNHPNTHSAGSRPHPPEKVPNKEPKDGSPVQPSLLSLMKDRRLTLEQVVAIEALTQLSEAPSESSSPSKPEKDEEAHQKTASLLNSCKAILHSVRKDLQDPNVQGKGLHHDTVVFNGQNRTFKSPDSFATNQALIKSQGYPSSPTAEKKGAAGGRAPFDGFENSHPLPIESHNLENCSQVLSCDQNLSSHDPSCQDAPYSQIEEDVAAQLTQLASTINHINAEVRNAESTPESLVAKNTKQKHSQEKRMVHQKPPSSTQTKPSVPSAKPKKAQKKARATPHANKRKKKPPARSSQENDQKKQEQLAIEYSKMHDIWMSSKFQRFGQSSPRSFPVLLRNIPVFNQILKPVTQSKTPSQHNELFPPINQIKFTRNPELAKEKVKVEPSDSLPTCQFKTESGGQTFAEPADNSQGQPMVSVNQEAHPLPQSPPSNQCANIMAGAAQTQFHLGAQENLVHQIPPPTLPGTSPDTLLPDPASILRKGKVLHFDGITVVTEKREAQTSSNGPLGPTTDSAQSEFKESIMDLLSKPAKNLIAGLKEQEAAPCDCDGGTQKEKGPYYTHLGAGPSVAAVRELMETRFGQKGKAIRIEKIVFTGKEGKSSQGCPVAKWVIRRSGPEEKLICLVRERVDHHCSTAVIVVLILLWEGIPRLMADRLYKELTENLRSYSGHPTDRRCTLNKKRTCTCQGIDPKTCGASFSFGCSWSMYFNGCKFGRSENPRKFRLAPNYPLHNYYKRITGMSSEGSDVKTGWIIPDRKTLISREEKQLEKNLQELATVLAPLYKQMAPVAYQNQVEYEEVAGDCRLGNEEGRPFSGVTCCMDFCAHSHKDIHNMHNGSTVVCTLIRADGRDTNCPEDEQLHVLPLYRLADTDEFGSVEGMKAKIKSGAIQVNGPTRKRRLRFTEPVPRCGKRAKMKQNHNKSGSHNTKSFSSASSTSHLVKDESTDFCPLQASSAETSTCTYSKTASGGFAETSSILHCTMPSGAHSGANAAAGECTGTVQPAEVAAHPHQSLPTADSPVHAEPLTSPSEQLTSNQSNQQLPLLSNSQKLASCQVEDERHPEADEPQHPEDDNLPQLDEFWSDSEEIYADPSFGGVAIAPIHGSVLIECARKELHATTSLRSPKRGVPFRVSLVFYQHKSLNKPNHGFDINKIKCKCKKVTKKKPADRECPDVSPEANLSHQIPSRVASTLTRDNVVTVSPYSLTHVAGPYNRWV
(Flag)3-TET1 1–1547 (WT): residues 1-1547 of Q3URK3
(Flag)3-TET1 1–1521 (WT): residues 1-1521 of Q3URK3
(Flag)3-TET1 1–1494 (WT): residues 1-1494 of Q3URK3
(Flag)3-TET1 1–631: residues 1-631 of Q3URK3
(Flag)3-TET1 1–321: residues 1-321 of Q3URK3
(Flag)3-TET1 1–215: residues 1-215 of Q3URK3
(Flag)3-TET1 1–108: residues 1-108 of Q3URK3
(Flag)3-TET1 734–2039: residues 734-2039 of Q3URK3
(Flag)3-TET1 734–1229: residues 734-1229 of Q3URK3
(Flag)3-TET1(734–1169): residues 734-1169 of Q3URK3
(Flag)3-TET1 1–1472 Δ1+2 (Q3URK3, form named): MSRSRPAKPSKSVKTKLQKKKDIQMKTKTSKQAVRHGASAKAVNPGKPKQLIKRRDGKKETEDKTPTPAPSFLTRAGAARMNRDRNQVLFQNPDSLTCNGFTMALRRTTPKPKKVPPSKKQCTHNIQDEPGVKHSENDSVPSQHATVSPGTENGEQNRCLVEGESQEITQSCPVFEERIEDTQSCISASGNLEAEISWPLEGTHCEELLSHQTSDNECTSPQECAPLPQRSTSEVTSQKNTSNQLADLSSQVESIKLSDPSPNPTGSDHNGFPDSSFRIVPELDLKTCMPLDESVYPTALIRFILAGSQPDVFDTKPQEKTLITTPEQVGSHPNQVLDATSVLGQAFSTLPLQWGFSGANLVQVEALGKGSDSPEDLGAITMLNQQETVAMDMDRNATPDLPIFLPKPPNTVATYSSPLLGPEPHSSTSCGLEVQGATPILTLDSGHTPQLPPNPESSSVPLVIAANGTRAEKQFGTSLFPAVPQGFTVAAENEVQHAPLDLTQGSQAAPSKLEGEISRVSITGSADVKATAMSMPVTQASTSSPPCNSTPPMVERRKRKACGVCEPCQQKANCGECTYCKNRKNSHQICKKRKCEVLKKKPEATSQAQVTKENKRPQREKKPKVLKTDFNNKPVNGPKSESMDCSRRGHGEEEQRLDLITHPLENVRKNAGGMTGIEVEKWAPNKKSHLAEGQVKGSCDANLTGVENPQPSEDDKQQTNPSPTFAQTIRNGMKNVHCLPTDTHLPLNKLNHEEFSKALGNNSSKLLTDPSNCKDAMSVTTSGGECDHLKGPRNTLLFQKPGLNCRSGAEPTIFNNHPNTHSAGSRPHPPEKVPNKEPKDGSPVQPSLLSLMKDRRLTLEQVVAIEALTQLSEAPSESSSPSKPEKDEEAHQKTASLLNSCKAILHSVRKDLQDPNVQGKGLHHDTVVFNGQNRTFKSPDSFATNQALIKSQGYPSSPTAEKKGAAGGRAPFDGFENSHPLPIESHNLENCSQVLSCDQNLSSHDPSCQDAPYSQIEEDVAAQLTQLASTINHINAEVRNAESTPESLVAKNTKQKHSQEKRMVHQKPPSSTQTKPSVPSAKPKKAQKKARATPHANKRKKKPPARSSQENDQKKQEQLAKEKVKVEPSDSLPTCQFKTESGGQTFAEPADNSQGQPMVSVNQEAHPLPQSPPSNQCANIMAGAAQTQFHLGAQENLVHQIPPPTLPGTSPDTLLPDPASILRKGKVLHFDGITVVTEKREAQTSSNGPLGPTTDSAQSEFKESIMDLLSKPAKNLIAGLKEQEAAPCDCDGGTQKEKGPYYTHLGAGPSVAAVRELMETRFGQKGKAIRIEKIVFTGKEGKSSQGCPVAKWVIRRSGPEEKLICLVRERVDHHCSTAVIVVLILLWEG
(Flag)3-TET1 1–1494 Δ1+2 (Q3URK3, form named): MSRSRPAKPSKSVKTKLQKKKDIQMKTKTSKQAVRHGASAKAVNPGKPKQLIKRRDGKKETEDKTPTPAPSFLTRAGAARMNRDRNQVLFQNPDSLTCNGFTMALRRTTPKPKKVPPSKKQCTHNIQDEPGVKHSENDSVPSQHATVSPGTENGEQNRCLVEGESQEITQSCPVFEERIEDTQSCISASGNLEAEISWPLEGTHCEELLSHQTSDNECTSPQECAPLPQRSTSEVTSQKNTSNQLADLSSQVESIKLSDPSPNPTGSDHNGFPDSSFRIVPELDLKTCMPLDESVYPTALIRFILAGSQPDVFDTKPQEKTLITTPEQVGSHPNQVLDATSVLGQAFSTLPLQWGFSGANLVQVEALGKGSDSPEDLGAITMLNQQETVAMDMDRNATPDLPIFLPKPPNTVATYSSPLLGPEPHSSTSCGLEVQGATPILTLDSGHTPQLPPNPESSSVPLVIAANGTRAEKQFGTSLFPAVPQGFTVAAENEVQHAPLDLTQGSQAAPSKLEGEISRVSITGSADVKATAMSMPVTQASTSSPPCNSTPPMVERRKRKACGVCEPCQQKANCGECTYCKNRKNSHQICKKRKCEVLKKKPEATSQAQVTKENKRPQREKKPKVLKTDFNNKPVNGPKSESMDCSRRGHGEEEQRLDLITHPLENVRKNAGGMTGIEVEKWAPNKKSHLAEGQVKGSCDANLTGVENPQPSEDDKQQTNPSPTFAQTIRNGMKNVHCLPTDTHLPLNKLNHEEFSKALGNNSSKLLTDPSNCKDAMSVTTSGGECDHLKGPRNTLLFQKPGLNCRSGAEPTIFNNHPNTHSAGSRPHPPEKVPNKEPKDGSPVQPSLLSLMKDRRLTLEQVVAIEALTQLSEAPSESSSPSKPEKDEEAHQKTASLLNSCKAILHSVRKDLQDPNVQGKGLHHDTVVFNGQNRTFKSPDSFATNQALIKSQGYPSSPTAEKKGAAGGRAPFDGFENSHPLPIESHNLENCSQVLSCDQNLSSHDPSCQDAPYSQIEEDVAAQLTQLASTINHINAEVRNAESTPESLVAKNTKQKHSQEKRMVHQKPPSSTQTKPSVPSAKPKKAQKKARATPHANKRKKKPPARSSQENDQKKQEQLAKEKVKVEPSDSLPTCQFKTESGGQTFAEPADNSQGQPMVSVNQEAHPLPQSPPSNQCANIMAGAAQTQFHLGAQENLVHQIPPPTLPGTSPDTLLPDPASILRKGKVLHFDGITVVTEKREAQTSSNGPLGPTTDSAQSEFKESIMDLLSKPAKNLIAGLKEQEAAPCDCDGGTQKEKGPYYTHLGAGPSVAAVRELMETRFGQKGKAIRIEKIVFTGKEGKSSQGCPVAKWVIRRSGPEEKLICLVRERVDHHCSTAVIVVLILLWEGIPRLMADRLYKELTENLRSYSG
(Flag)3-TET1 1–1521 Δ1+2 (Q3URK3, form named): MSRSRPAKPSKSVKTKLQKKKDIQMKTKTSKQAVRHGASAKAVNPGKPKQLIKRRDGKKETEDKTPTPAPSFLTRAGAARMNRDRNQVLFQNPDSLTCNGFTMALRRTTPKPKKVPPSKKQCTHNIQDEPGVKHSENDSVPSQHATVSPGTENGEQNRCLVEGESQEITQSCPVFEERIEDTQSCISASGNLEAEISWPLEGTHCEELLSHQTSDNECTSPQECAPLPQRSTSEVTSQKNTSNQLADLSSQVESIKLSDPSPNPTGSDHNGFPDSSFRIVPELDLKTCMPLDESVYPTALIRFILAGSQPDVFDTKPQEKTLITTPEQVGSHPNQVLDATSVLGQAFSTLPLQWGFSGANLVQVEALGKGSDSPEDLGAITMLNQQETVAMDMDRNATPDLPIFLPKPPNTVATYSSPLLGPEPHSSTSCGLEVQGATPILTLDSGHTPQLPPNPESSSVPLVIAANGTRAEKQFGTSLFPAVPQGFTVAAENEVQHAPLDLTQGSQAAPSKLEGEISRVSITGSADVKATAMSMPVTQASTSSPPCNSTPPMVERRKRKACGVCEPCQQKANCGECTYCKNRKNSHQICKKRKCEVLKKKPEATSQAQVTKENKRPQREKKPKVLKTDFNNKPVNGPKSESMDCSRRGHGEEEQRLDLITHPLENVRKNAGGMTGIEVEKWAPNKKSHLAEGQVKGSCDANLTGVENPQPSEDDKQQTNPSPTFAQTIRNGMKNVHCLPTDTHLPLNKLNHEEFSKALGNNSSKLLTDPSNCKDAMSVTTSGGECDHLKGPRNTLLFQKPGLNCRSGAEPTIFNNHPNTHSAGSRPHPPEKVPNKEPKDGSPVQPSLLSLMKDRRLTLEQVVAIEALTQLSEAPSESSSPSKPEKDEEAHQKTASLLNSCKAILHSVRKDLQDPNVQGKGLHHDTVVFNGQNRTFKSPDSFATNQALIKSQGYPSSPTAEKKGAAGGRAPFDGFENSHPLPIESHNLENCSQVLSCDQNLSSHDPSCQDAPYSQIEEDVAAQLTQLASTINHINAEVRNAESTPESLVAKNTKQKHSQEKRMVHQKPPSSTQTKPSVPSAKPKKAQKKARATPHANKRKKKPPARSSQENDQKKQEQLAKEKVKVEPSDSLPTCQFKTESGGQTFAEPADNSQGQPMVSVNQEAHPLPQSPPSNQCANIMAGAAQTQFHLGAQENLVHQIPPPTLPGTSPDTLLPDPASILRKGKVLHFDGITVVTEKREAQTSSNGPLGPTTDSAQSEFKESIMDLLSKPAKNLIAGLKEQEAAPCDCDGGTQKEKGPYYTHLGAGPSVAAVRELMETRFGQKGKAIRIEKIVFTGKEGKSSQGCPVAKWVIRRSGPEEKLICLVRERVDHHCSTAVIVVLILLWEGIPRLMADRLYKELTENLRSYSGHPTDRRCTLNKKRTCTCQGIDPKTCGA

How the values were obtained:
Experiment in all cases: co-IP; (Flag)3-TET1 constructs and (HA)3-NANOG constructs expressed together in E14/T ESCs; Benzonase-treated nuclear protein extracts (350 mM KCl); TET1 immunoprecipitated by its Flag tag, immunoblot; for TET1(734–1169) also after phosphatase treatment of the extracts
[1] = target: (Flag)3-TET1 1–108 (mouse) (UniProt Q3URK3)
[2] = target: (Flag)3-TET1 1–1472 Δ1+2 (mouse) (UniProt Q3URK3)
[3] = target: (Flag)3-TET1 1–1494 (WT) (mouse) (UniProt Q3URK3)
[4] = target: (Flag)3-TET1 1–1494 Δ1+2 (mouse) (UniProt Q3URK3)
[5] = target: (Flag)3-TET1 1–1521 (WT) (mouse) (UniProt Q3URK3)
[6] = target: (Flag)3-TET1 1–1521 Δ1+2 (mouse) (UniProt Q3URK3)
[7] = target: (Flag)3-TET1 1–1547 (WT) (mouse) (UniProt Q3URK3)
[8] = target: (Flag)3-TET1 1–215 (mouse) (UniProt Q3URK3)
[9] = target: (Flag)3-TET1 1–321 (mouse) (UniProt Q3URK3)
[10] = target: (Flag)3-TET1 1–631 (mouse) (UniProt Q3URK3)
[11] = target: (Flag)3-TET1 734–1229 (mouse) (UniProt Q3URK3)
[12] = target: (Flag)3-TET1 734–2039 (mouse) (UniProt Q3URK3)
[13] = target: (Flag)3-TET1 full-length Δ1 (Δ109–120) (mouse) (UniProt Q3URK3)
[14] = target: (Flag)3-TET1 full-length Δ1+2 (Δ109–120 + Δ1132–1202) (mouse) (UniProt Q3URK3)
[15] = target: (Flag)3-TET1(1–1547) Δ1+2 (Δ109-120 + Δ1132-1202) (mouse) (UniProt Q3URK3)
[16] = target: (Flag)3-TET1(734–1169) (mouse) (UniProt Q3URK3)

B1: (HA)3-NANOG (protein, UniProt Q80Z64 1-305)
chain: MSVGLPGPHSLPSSEEASNSGNASSMPAVFHPENYSCLQGSATEMLCTEAASPRPSSEDLPLQGSPDSSTSPKQKLSSPEADKGPEEEENKVLARKQKMRTVFSQAQLCALKDRFQKQKYLSLQQMQELSSILNLSYKQVKTWFQNQRMKCKRWQKNQWLKTSNGLIQKGSAPVEYPSIHCSYPQGYLVNASGSLSMWGSQTWTNPTWSSQTWTNPTWNNQTWTNPTWSSQAWTAQSWNGQPWNAAPLHNFGEDFLQPYVQLQQNFSASDLEVNLEATRESHAHFSTPQALELFLNYSVTPPGEI
With B1 as the binder, how does the binding [1] read?
The binding was “no binding”.

What about the binding [2] of the same binder?
Its binding is “no binding”.

What about the binding [3] of the same binder?
Its binding is “binds weakly”.

What about the binding [4] of the same binder?
The binding was “no binding”.

And the binding [5]?
The binding was “binds weakly”.

What about the binding [6] of the same binder?
Its binding is “no binding”.

What about the binding [7] of the same binder?
The binding was “binds”.

What about the binding [8] of the same binder?
The binding was “binds”.

What about the binding [9] of the same binder?
Its binding is “binds”.

What about the binding [10] of the same binder?
The binding was “binds”.

And the binding [11]?
The binding was “binds”.

And the binding [12]?
The binding was “binds”.

And the binding [13]?
Its binding is “binds”.

And the binding [14]?
The binding was “binds”.

And the binding [15]?
Its binding is “binds”.

What about the binding [16] of the same binder?
Its binding is “binds”.
